Assay results reported in patent EP4793292A1, “POLYPEPTIDE DERIVATIVE, PHARMACEUTICAL COMPOSITION THEREOF AND USE THEREOF” (Biocells (Beijing) Biotech Co., Ltd., priority 2023, dated 2025).
Part of at least one peptide drawing is inferred or uncertain, most often the ends. Some entries repeat one wording, which the source may state once for all of them. Starred links: 1 amine or outer side, 2 acyl side, 3 side chain; linkers in the order of their positions; H or OH if unused. Positions of bridges follow the written chain, without caps; N, C: chain ends. Non-standard residues stand in square brackets, D forms with d. Residues, ends and D or L forms follow the SMILES beside them. Groups on a side chain read outwards from the residue. *: point of attachment. C18 diacid = O=C(O)CCCCCCCCCCCCCCCCC(=O)*; γGlu = O=C(O)[C@H](CCC(=O)[*:2])N[*:1]; AEEA = NCCOCCOCC(=O)O

System: SH-SY5Y cells
Assay: Axonal growth of RA-differentiated SH-SY5Y cells on proteoglycan (ACAN) coating
Format: cell-based, human
Conditions: PW polypeptide 2.5 µM, 72 h, proteoglycan (ACAN)-coated plate, FIG. 1
Procedure: Therefore, RA-induced differentiated SH-SY5Y can be used to simulate neuronal axonal growth in vitro and to test the effects of PW polypeptides on axonal growth.
Preparation of culture medium for SH-SY5Y: 1) DMEM/F12 + 10% FBS + 1 × penicillin-streptomycin + 1 mM sodium pyruvate; 2) DMEM/F12 + 1% FBS + 1 × penicillin-streptomycin + 1 mM sodium pyruvate. Preparation of 50 mM retinoic acid stock solution: 15.02 mg of retinoic acid was weighed and dissolved in 1 mL of dimethyl sulfoxide (DMSO), aliquoted, and frozen at -80°C. Proteoglycan (ACAN/CSPG1) is a type of chondroitin sulfate proteoglycan (CSPG). Preparation of 1 mg/mL proteoglycan stock solution: 1 mg of ACAN solid was dissolved in 1 mL of distilled water, aliquoted, and frozen at -80°C. Preparation of PW polypeptide solution for cells (1 mM): the corresponding mass of polypeptide powder was weighed, dissolved in PBS and filtered through a 0.2 µm filter membrane, aliquoted, and frozen at -20°C.
The 1 mg/mL proteoglycan was diluted to 250 µg/mL with distilled water to coat a 24-well cell culture plate: each well was coated with 3 droplets of ACAN, 2 µL per droplet. Using the culture medium containing 10% FBS, SH-SY5Y cells were seeded in the proteoglycan-coated 24-well plate (20,000 cells/well) and incubated (37°C, 5% CO2) for 20 h. The medium was replaced with a culture medium containing 1% FBS, and PW polypeptide (2.5 µM) or an equal volume of PBS solution was added. After incubation for 72 h, the cells were fixed with 4% paraformaldehyde (room temperature, 30 min), and cell morphology was photographed and recorded using a 10× optical microscope. 20-30 cells were randomly selected under each field of view, and axonal length was measured using Image J-SNT.
Data analysis: All measured axonal lengths within each proteoglycan-coated range were averaged to serve as one data point. One-way analysis of variance and Tukey's test were used to compare the differences between groups. P<0.05 was considered as a significant difference.

Compound | effect of promoting axonal growth compared with the scrambled polypeptide (Scr, negative control) | promoting effect on axonal growth compared with PW6
CC[C@H](C)[C@H](NC(=O)[C@H](CO)NC(=O)[C@H](CCC(=O)O)NC(=O)[C@H](Cc1ccc(O)cc1)NC(=O)[C@H](CCC(=O)O)NC(=O)[C@H](CCC(N)=O)NC(=O)[C@H](CO)NC(=O)[C@H](CC(C)C)NC(=O)[C@H](CCCCN)NC(=O)[C@H](CC(C)C)NC(=O)[C@H](CO)NC(=O)[C@H](CC(=O)O)NC(=O)[C@H](CC(N)=O)NC(=O)[C@H](C)NC(=O)[C@H](CCCCNC(=O)COCCOCCNC(=O)COCCOCCNC(=O)CC[C@H](NC(=O)CCCCCCCCCCCCCCCCC(=O)O)C(=O)O)NC(=O)[C@H](CC(C)C)NC(=O)[C@H](CCCNC(=N)N)NC(=O)[C@H](CCC(=O)O)NC(=O)[C@@H](NC(=O)[C@H](Cc1c[nH]cn1)NC(=O)[C@H](CCC(=O)O)NC(=O)[C@H](C)NC(=O)[C@H](CCSC)NC(=O)[C@H](CC(=O)O)NC(=O)[C@H](CCCNC(=N)N)NC(=O)[C@H](CCCNC(=N)N)NC(=O)[C@@H](CCCNC(=N)N)NC(=O)[C@H](CCC(N)=O)NC(=O)[C@@H](CCCNC(=N)N)NC(=O)[C@H](CCCNC(=N)N)NC(=O)[C@H](CCCCN)NC(=O)[C@H](CCCCN)NC(=O)[C@@H](CCCNC(=N)N)NC(=O)CN)[C@@H](C)O)C(N)=O [PW-93] (H-G[dR]KKR[dR]Q[dR]RRDMAEHTERLK([AEEA-AEEA-γGlu-C18 diacid])ANDSLKLSQEYESI-NH2) | significant effect of promoting axonal growth | significantly enhanced
CC[C@H](C)[C@H](NC(=O)[C@H](CO)NC(=O)[C@H](CCC(=O)O)NC(=O)[C@H](Cc1ccc(O)cc1)NC(=O)[C@@H]1CCC(=O)NCCCC[C@H](NC(=O)[C@H](CC(C)C)NC(=O)[C@H](CO)NC(=O)[C@H](CC(=O)O)NC(=O)[C@H](CC(N)=O)NC(=O)[C@H](C)NC(=O)[C@H](CCCCN)NC(=O)[C@H](CC(C)C)NC(=O)[C@H](CCCNC(=N)N)NC(=O)[C@H](CCC(=O)O)NC(=O)[C@@H](NC(=O)[C@H](Cc2c[nH]cn2)NC(=O)[C@H](CCC(=O)O)NC(=O)[C@H](C)NC(=O)[C@H](CCSC)NC(=O)[C@H](CC(=O)O)NC(=O)[C@H](CS)NC(=O)[C@H](CCCNC(=N)N)NC(=O)[C@H](CCCNC(=N)N)NC(=O)[C@@H](CCCNC(=N)N)NC(=O)[C@H](CCC(N)=O)NC(=O)[C@@H](CCCNC(=N)N)NC(=O)[C@H](CCCNC(=N)N)NC(=O)[C@H](CCCCN)NC(=O)[C@H](CCCCN)NC(=O)[C@@H](CCCNC(=N)N)NC(=O)CN)[C@@H](C)O)C(=O)N[C@@H](CC(C)C)C(=O)N[C@@H](CO)C(=O)N[C@@H](CCC(N)=O)C(=O)N1)C(N)=O [PW-98, NH2-GrKKRrQrRR-C-DMAEHTERLKANDSLcyclo(KLSQE)YESI-NH2] (H-G[dR]KKR[dR]Q[dR]RRCDMAEHTERLKANDSLKLSQEYESI-NH2; lactam 27-31) | significant effect of promoting axonal growth | significantly enhanced
CC[C@H](C)[C@H](NC(=O)[C@H](CO)NC(=O)[C@H](CCC(=O)O)NC(=O)[C@H](Cc1ccc(O)cc1)NC(=O)[C@@H]1CCC(=O)NCCCC[C@H](NC(=O)[C@H](CC(C)C)NC(=O)[C@H](CO)NC(=O)[C@H](CC(=O)O)NC(=O)[C@H](CC(N)=O)NC(=O)[C@H](C)NC(=O)[C@H](CCCCN)NC(=O)[C@H](CC(C)C)NC(=O)[C@H](CCCNC(=N)N)NC(=O)[C@H](CCC(=O)O)NC(=O)[C@@H](NC(=O)[C@H](Cc2c[nH]cn2)NC(=O)[C@H](CCC(=O)O)NC(=O)[C@H](C)NC(=O)[C@H](CCSC)NC(=O)[C@H](CC(=O)O)NC(=O)[C@H](CCCNC(=N)N)NC(=O)[C@H](CCCNC(=N)N)NC(=O)[C@@H](CCCNC(=N)N)NC(=O)[C@H](CCC(N)=O)NC(=O)[C@@H](CCCNC(=N)N)NC(=O)[C@H](CCCNC(=N)N)NC(=O)[C@H](CCCCN)NC(=O)[C@H](CCCCN)NC(=O)[C@@H](CCCNC(=N)N)NC(=O)CN)[C@@H](C)O)C(=O)N[C@@H](CC(C)C)C(=O)N[C@@H](CO)C(=O)N[C@@H](CCC(N)=O)C(=O)N1)C(N)=O [PW-99, NH2-GrKKRrQrRR-DMAEHTERLKANDSLcyclo(KLSQE)YESI-NH2] (H-G[dR]KKR[dR]Q[dR]RRDMAEHTERLKANDSLKLSQEYESI-NH2; lactam 26-30) | significant effect of promoting axonal growth | no significant difference
CC[C@H](C)[C@H](NC(=O)[C@H](CO)NC(=O)[C@H](CCC(=O)O)NC(=O)[C@H](Cc1ccc(O)cc1)NC(=O)[C@H](CCC(=O)O)NC(=O)[C@H](CCC(N)=O)NC(=O)[C@H](CO)NC(=O)[C@H](CC(C)C)NC(=O)[C@H](CCCCN)NC(=O)[C@H](CC(C)C)NC(=O)[C@H](CO)NC(=O)[C@H](CC(=O)O)NC(=O)[C@H](CC(N)=O)NC(=O)[C@H](C)NC(=O)[C@@H]1CCCCNC(=O)CC[C@H](NC(=O)[C@@H](NC(=O)[C@H](Cc2c[nH]cn2)NC(=O)[C@H](CCC(=O)O)NC(=O)[C@H](C)NC(=O)[C@H](CCSC)NC(=O)[C@H](CC(=O)O)NC(=O)[C@H](CS)NC(=O)[C@H](CCCNC(=N)N)NC(=O)[C@H](CCCNC(=N)N)NC(=O)[C@@H](CCCNC(=N)N)NC(=O)[C@H](CCC(N)=O)NC(=O)[C@@H](CCCNC(=N)N)NC(=O)[C@H](CCCNC(=N)N)NC(=O)[C@H](CCCCN)NC(=O)[C@H](CCCCN)NC(=O)[C@@H](CCCNC(=N)N)NC(=O)CN)[C@@H](C)O)C(=O)N[C@@H](CCCNC(=N)N)C(=O)N[C@@H](CC(C)C)C(=O)N1)C(N)=O [PW-101, NH2-GrKKRrQrRR-C-DMAEHTcyclo(ERLK)ANDSLKLSQEYESI-NH2] (H-G[dR]KKR[dR]Q[dR]RRCDMAEHTERLKANDSLKLSQEYESI-NH2; lactam 18-21) | significant effect of promoting axonal growth | no significant difference
CC[C@H](C)[C@H](NC(=O)[C@H](CO)NC(=O)[C@@H]1CCC(=O)NCCCC[C@H](NC(=O)[C@H](CC(C)C)NC(=O)[C@H](CO)NC(=O)[C@H](CC(=O)O)NC(=O)[C@H](CC(N)=O)NC(=O)[C@H](C)NC(=O)[C@H](CCCCN)NC(=O)[C@H](CC(C)C)NC(=O)[C@H](CCCNC(=N)N)NC(=O)[C@H](CCC(=O)O)NC(=O)[C@@H](NC(=O)[C@H](Cc2c[nH]cn2)NC(=O)[C@H](CCC(=O)O)NC(=O)[C@H](C)NC(=O)[C@H](CCSC)NC(=O)[C@H](CC(=O)O)NC(=O)[C@H](CS)NC(=O)[C@H](CCCNC(=N)N)NC(=O)[C@H](CCCNC(=N)N)NC(=O)[C@@H](CCCNC(=N)N)NC(=O)[C@H](CCC(N)=O)NC(=O)[C@@H](CCCNC(=N)N)NC(=O)[C@H](CCCNC(=N)N)NC(=O)[C@H](CCCCN)NC(=O)[C@H](CCCCN)NC(=O)[C@@H](CCCNC(=N)N)NC(=O)CN)[C@@H](C)O)C(=O)N[C@@H](CC(C)C)C(=O)N[C@@H](CO)C(=O)N[C@@H](CCC(N)=O)C(=O)N[C@@H](CCC(=O)O)C(=O)N[C@@H](Cc2ccc(O)cc2)C(=O)N1)C(N)=O [PW-106, NH2-GrKKRrQrRR-C-DMAEHTERLKANDSLcyclo(KLSQEYE)SI-NH2] (H-G[dR]KKR[dR]Q[dR]RRCDMAEHTERLKANDSLKLSQEYESI-NH2; lactam 27-33) | significant effect of promoting axonal growth | no significant difference
CC[C@H](C)[C@H](NC(=O)[C@H](CO)NC(=O)[C@H](CCC(=O)O)NC(=O)[C@H](Cc1ccc(O)cc1)NC(=O)[C@@H]1CCC(=O)NCCCC[C@H](NC(=O)[C@H](CC(C)C)NC(=O)[C@H](CO)NC(=O)[C@H](CC(=O)O)NC(=O)[C@H](CC(N)=O)NC(=O)[C@H](C)NC(=O)[C@H](CCCCNC(=O)COCCOCCNC(=O)COCCOCCNC(=O)CC[C@H](NC(=O)CCCCCCCCCCCCCCCCC(=O)O)C(=O)O)NC(=O)[C@H](CC(C)C)NC(=O)[C@H](CCCNC(=N)N)NC(=O)[C@H](CCC(=O)O)NC(=O)[C@@H](NC(=O)[C@H](Cc2c[nH]cn2)NC(=O)[C@H](CCC(=O)O)NC(=O)[C@H](C)NC(=O)[C@H](CCSC)NC(=O)[C@H](CC(=O)O)NC(=O)[C@H](CS)NC(=O)[C@H](CCCNC(=N)N)NC(=O)[C@H](CCCNC(=N)N)NC(=O)[C@H](CCCNC(=N)N)NC(=O)[C@H](CCC(N)=O)NC(=O)[C@H](CCCNC(=N)N)NC(=O)[C@H](CCCNC(=N)N)NC(=O)[C@H](CCCCN)NC(=O)[C@H](CCCCN)NC(=O)[C@H](CCCNC(=N)N)NC(=O)CN)[C@@H](C)O)C(=O)N[C@@H](CC(C)C)C(=O)N[C@@H](CO)C(=O)N[C@@H](CCC(N)=O)C(=O)N1)C(N)=O [PW-175] (H-GRKKRRQRRRCDMAEHTERLK([AEEA-AEEA-γGlu-C18 diacid])ANDSLKLSQEYESI-NH2; lactam 27-31) | significant effect of promoting axonal growth | no significant difference
